Literature values in US20190054060A1 (priority 2016, published 2019).

Test system: influenza
Details: human, in vivo; cited from earlier work

**Q.** With `CC[C@H]1OC(=O)[C@H](C)[C@@H](O[C@H]2C[C@@](C)(OC)[C@@H](O)[C@H](C)O2)[C@H](C)[C@@H](O[C@@H]2O[C@H](C)C[C@H](N(C)C)[C@H]2O)[C@](C)(OC)C[C@@H](C)C(=O)[C@H](C)[C@@H](O)[C@]1(C)O` [Clarithromycin, clarithromycin] as the compound, how does the “effect on symptoms in pediatric influenza patients” value read?
**A.** The value was “hasten the resolution of symptoms”.
